The campaign covered roughly 420,000 compounds. About 50,000 (12%) were called active. Inconclusive means that the source gave no clear call. Such entries were picked first, then a sample of the others. Calls come from the whole dose curve; as a rule, active = well fitted inhibition curve with a large enough effect; inconclusive = small, poorly fitted or top-dose-only effect; inactive = flat fitted curve, though single readings scatter. Potencies of inconclusive entries are left out as doubtful fits.
Test: qHTS for Inhibitors of human tyrosyl-DNA phosphodiesterase 1 (TDP1): qHTS in cells in presence of CPT; note: nearly all actives have a fitted effect of over 55% in size
Settings: chicken DT40 Tdp1-/-;hTDP1 cells + 20 nM CPT, ATP luminescence, 48 h; activity change, negative = growth inhibition: at 46.2 µM (top of the series) unless noted
Outline: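 Chicken DT40 Tdp1-/- cells complemented with human TDP1, 400 cells/well, exposed to compounds plus 20 nM camptothecin for at least 48 h at 37 C; viability read as ATP content by CellTiter-Glo luminescence.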
% is set by controls: 0 for no effect and ±100 for the full control effect; potency is the fitted concentration of half-maximal effect; tags give direction and shape of the fitted curve.

Row | SMILES | Potency | activity change, negative = growth inhibition
1 | CCOC(=O)[C@]12CCCC=C1N(Cc1ccccc1)C(=O)[C@H](CC(=O)NCC1CCCCC1)C2 | inconclusive [inhibitor, single point] | 
2 | C[C@@H]1CN([C@@H](C)CO)C(=O)c2cc(N(C)C)ccc2O[C@@H](C)CCCCO[C@@H]1CN(C)Cc1ccc2c(c1)OCO2 | active: 16.4 µM | 
3 | Cc1ccoc1C(=O)N1CCCC(CO)(Cc2ccc(F)cc2)C1 (centres undefined) | inconclusive [inhibitor, single point] | 
4 | O=C1C(NS(=O)(=O)c2ccccc2)=C(N2CCN(c3ccc(F)cc3)CC2)C(=O)c2ccccc21 | inconclusive [inhibitor, partial curve, poor fit] | 
5 | CCCCc1ccc(Nc2ncnc3nc[nH]c23)cc1 |  | inactive: -23.2%
6 | CCOC(=O)CSc1nnc(CNc2ccc(Cl)cc2)n1-c1ccccc1 |  | inactive: -11.9%
7 | Cc1oc2ncn(CC(C)C)c(=O)c2c1C(=O)Nc1cc(F)ccc1F | inconclusive [inhibitor, full curve, poor fit] | 
8 | NNc1nc(-c2ccccc2)cc(-c2ccc(Br)cc2)n1 | inconclusive [inhibitor, single point] | 
9 | CCN1CCN(c2ccc(NC(=O)c3ccc([N+](=O)[O-])o3)cc2Cl)CC1 | active: 0.58 µM | 
10 | Cc1cccc(NC(=O)CC(=O)Nc2cccc(C)c2)c1 |  | inactive: -0.293%
11 | O=C(CSc1nnc2n1CCCN2C(=S)Nc1ccc(Cl)cc1)c1ccccc1 | inconclusive [inhibitor, partial curve] | 
12 | CC(C)NC(=O)c1cc(C2CCCCN2C(=O)OCCF)on1 (centres undefined) |  | inactive: -1.48%
13 | COc1ccc(-c2oc3ccccc3c2C(=O)OCc2ccccc2OC)cc1 | inconclusive [inhibitor, single point] | 
14 | CCCCn1nc2cc(C(=O)NCC3CC3)ccc2c1OCC |  | inconclusive: -16.9% [inhibitor]
15 | CCN(CC)CCCNC(=O)C1CCN(c2ncnc3c2sc2cccc(F)c23)CC1 | inconclusive [inhibitor, single point] | 
16 | CN(Cc1ccccc1)C(=O)C1(C)CCN1C(=O)Cc1ccc(Cl)cc1Cl (centres undefined) | inconclusive [inhibitor, single point] | 
17 | CCCCn1c(N)c(N(C)C(=O)C2CCCC2)c(=O)[nH]c1=O |  | inactive: 24.7%
18 | CCCn1c(CCNc2nc(-c3ccc(Cl)c([N+](=O)[O-])c3)cs2)nc2cc(Cl)c(Cl)cc21 |  | inactive: -11.3%
19 | Cc1c(C#N)c(NC(=O)CCl)n(Cc2ccccc2)c1C | active: 2.59 µM | 
20 | COc1cc2ncc(C(=O)c3ccccc3)c(N3CCN(Cc4ccccc4)CC3)c2cc1OC | inconclusive [inhibitor, single point] | 
21 | Cn1c(=O)oc2cc(S(=O)(=O)Nc3ccc4c(c3)OCCO4)ccc21 | inconclusive [inhibitor, single point] | 
22 | CC(C)Nc1oc(-c2cccc3ccccc23)nc1C#N | inconclusive [inhibitor, single point] | 
23 | C(=C\c1c[nH]c2ccccc12)/c1nccc2ccccc12 | inconclusive [inhibitor, single point] | 

Row | SMILES | Potency | activity change, negative = growth inhibition
24 | O=C(O)c1ccc(NNC(=S)Nc2cc(C(F)(F)F)ccc2Cl)cc1 | inconclusive [inhibitor, single point] | 
25 | c1ccc(-c2csc3ncnc(NCC4COc5ccccc5O4)c23)cc1 (centres undefined) | active: 0.731 µM | 
26 | CC(OC(=O)c1ccccc1NS(=O)(=O)c1cccc(N)c1)C(=O)N(C)Cc1ccccc1 (centres undefined) | inconclusive [inhibitor, single point] | 
27 | Cn1c(SCC(=O)Nc2cc(Cl)cc(Cl)c2)nnc1-c1ccc2nonc2c1 | inconclusive [inhibitor, single point] | 
28 | CC(=O)c1ccc(NC(=S)Nc2ccn(Cc3ccc(Br)cc3)n2)cc1 |  | inactive: 1.54%
29 | Cc1nc2ccccc2c2c(N)c3ccccc3n12 | inconclusive [inhibitor, single point] | 
30 | COc1cccc(CNC(=O)c2cc3c(s2)-c2c(C)cccc2OC3)c1 | inconclusive [inhibitor, single point] | 
31 | CCOc1ccc(-n2c(SCC(=O)Nc3ccc(OC)cc3)nc3sc4c(c3c2=O)CCN(C)C4)cc1 | inconclusive [inhibitor, single point] | 
32 | CC(C)(C)OC(=O)C[C@@H]1C/C=C\C[C@H](CC(=O)N(CCO)Cc2ccccc2)C(=O)N[C@@H](Cc2c[nH]c3ccccc23)COC1=O | inconclusive [inhibitor, single point] | 
33 | COc1ccc(-c2nc(CNS(=O)(=O)c3ccccc3)cs2)cc1 | inconclusive [inhibitor, single point] | 
34 | OC(CSc1ccccc1)CN1CCN(c2cccc(Cl)c2)CC1 (centres undefined) | inconclusive [inhibitor, single point] | 
35 | CCCc1nnc(SCCSc2nnc(CCC)n2N)n1N | inconclusive [inhibitor, single point] | 
36 | CCc1cc2cc(C)ccc2nc1SCC(=O)N1CCN(C(=O)c2ccco2)CC1 | active: 13 µM | 
37 | O=S(=O)(c1cccc(Cl)c1)N1CN(CC2CCCO2)c2nc3ccccc3nc21 (centres undefined) | inconclusive [inhibitor, single point] | 
38 | Oc1ccc(C[C@H]2CNC(=S)N2CC2CCCN2C[C@H](Cc2ccccc2)N2C[C@H](Cc3ccc(O)cc3)N(CCc3ccccc3)C2=S)cc1 (some centres undefined) | active: 23.1 µM | 
39 | O=C(CCS(=O)(=O)Cc1ccccc1)N1CCc2ccccc2C1 |  | inconclusive: -30.7% [inhibitor]
40 | O=C(NC(=S)N1CCOCC1)C12CCC3CC(CC(C3)C1)C2 |  | inactive: -16.4%
41 | Brc1ccc(OCc2nc3ccccc3[nH]2)cc1 | inconclusive [inhibitor, single point] | 
42 | CCCC(=O)N(c1ccc2oc(C)c(C(C)=O)c2c1)S(=O)(=O)c1ccc(C(=O)O)cc1 |  | inactive: -11.6%
43 | Cc1ccc2nc3n(c(=O)c2c1)-c1ncccc1C(=O)NC3Cc1ccccc1 (centres undefined) | inconclusive [inhibitor, single point] | 
44 | COC(=O)[C@]12CCCCC=C1N(Cc1cccc3ccccc13)C(=O)[C@H](CC(=O)NCc1ccccc1)C2 | inconclusive [inhibitor, single point] | 
45 | C=C(C)C1CC=C(C)/C(=N/NC(=O)C2CC2c2ccccc2)C1 (centres undefined) |  | inactive: -23.8%
46 | CCC(C)(C(=O)NC1CCCCC1)N(Cc1ccco1)C(=O)c1ccc2c(c1)OCO2 (centres undefined) | active: 11.6 µM | 

Row | SMILES | Potency | activity change, negative = growth inhibition
47 | COc1ccc2c(CC(=O)OCC(=O)N3CCc4ccccc43)coc2c1 | inconclusive [inhibitor, single point] | 
48 | COCCNC(=O)C1CCCN(S(=O)(=O)c2c(C)noc2/C=C/c2cccs2)C1 (centres undefined) | inconclusive [inhibitor, single point] | 
49 | CC1=CC[C@@]2(CO)COC(c3ccccc3O)C1C2 (some centres undefined) |  | inactive: 5.59% [at 9.04 µM]
50 | COc1ccc(OC)c(/C=N\NC(=O)c2cc3c(ccc4ccccc43)o2)c1 | inconclusive [inhibitor, partial curve] | 
51 | Oc1ccc(N=Cc2ccc(O)c(O)c2)cc1 | inconclusive [inhibitor, single point] | 
52 | Cc1ccc2c(c1)-c1nc(-c3ccc4c(c3)NC(=O)CO4)cc(-c3ccc(Cl)cc3)c1CO2 | active: 1.46 µM | 
53 | CCC(=O)Nc1cccc(NC(=S)NC(=O)c2cccc(C)c2)c1 | inconclusive [inhibitor, single point] | 
54 | N#Cc1ccc(OCC(=O)NCC(c2cccs2)N2CCOCC2)cc1 (centres undefined) |  | inactive: 5.83%
55 | O=C(CSc1nnc(-c2cccc(Br)c2)o1)N1CCOCC1 | inconclusive [inhibitor, single point] | 
56 | O=C(Cn1c(-c2ccccn2)nc2ccccc21)N/N=C/c1cccnc1 |  | inactive: -5.74%
57 | COc1ccc(N2CCN(C(=O)c3ccc(NS(=O)(=O)c4cccc(F)c4)cc3)CC2)cc1 | inconclusive [inhibitor, partial curve, poor fit] | 
58 | Cc1ccc(S(=O)(=O)N2[C@@H](c3ccc(Cl)cc3)C(C(=O)O)=C[C@H]2C(C)(C)C)cc1 |  | inactive: -11.9%
59 | OC(c1cccc(Cl)c1)c1nc(-c2cccc3cccnc23)cs1 (centres undefined) | inconclusive [inhibitor, single point] | 
60 | Cc1ccc(S(=O)(=O)N2[C@@H](CO)CO[C@H]2CC(=O)c2cccs2)cc1 |  | inconclusive: -8.9% [inhibitor]
61 | O=C(NC1CCN(Cc2ccccc2)CC1)c1cccc(S(=O)(=O)Nc2cc(C(F)(F)F)ccc2Cl)c1 | inconclusive [inhibitor, single point] | 
62 | CN(C(=O)c1ccc(NC(=O)Cc2cccc(NC(=O)C3CCCN(C(=O)CCc4ccccc4)C3)c2)cc1)C1CCCC1 (centres undefined) | active: 29.1 µM | 
63 | COc1cccc(C(=O)COC(=O)CCC(=O)NC2CCCCC2)c1 |  | inactive: -9.51%
64 | Cc1ccc(NS(=O)(=O)c2ccc3nc(-c4ccccc4)[nH]c3c2)c(Cl)c1 | inconclusive [inhibitor, single point] | 
65 | COc1ccccc1S(=O)(=O)CC(O)COc1ccc(F)cc1Cl (centres undefined) |  | inactive: -9.27%
66 | COCCNC(=O)C1(C)CCCN(Cc2csc(-c3ccc(Cl)cc3)n2)C1 (centres undefined) | active: 11.6 µM | 
67 | CC(NC(=O)CCC(=O)c1cccs1)c1ccccc1 (centres undefined) |  | inactive: 12.6%
68 | Cc1ccc2nc(N3CCN(C(=O)C4CC4)CC3)sc2c1 |  | inactive: -1.03%
69 | Cc1ccc(CCc2nnc(SCC(=O)Nc3ccccc3Cl)n2-c2ccccc2)o1 | inconclusive [inhibitor, single point] | 
